# Laboratory results reported in ChEMBL document CHEMBL4888484, “Replenishing the malaria drug discovery pipeline: Screening and hit evaluation of the MMV Hit Generation Library 1 (HGL1) against asexual blood stage Plasmodium falciparum ,using a nano luciferase reporter read-out” (2022).
# About 540 (0.36%) of roughly 150,000 compounds showed an effect of 50% or more. This is one part of the list.
# System: Plasmodium falciparum
# Experiment: Primary screen in NF54 nanoGlo assay, in single point, at 2uM, 72h; a lower Z score goes with more inhibition
# Assay type: functional, Erythrocyte
# Conditions: timepoint 72 hour
Compound,% Inhibition,Z score
Cn1cccc1C(=O)N1CCCC2CC21 (stereo unspecified),0%,0.01
Cc1cc(Br)ccc1CN[C@@H](C)CO,2%,-0.21
COc1ccc(N2CCN(C(=O)C(=O)NC3CCCC3)CC2)cc1,-3%,0.48
C[C@H](NC(=O)C1CCN(S(=O)(=O)c2ccc3nc4c(c(C(=O)O)c3c2)CCCC4)CC1)c1ccccc1,-10%,1.52
CN(CCc1noc(C2CN(S(=O)(=O)c3cccnc3)C2)n1)C(=O)c1ccncc1,-3%,0.32
Cc1cc(C(=O)N2CCS(=O)(=O)C3CCCC32)oc1C (stereo unspecified),-9%,1.88
Cc1nc(NC2CCCCC2)sc1C(=O)NCc1ccccc1,29%,-3.25
O=C(CCCN1CCCC1)c1ccc(F)c(F)c1,2%,-0.21
COCC[C@H]1COCCN1C(=O)c1ccnc(C2CC2)c1,-10%,1.69
Cc1cccc(-c2nc(NC[C@H]3CCCO3)nc3nn(-c4cc(F)ccc4F)c(N)c23)c1,-6%,1.03
CN1c2ccccc2C(=O)N[C@@H]1c1cccc2ccccc12,5%,-0.91
O=c1[nH]c2cc3c(cc2c(=O)n1Cc1nc(-c2cccc(F)c2)no1)OCO3,-1%,0.08
COCC(=O)N1CC[C@@]2(O)CCN(Cc3c(C)sc4ccccc34)C[C@H]2C1,-1%,0.13
Cc1ccc(C(=O)N2C[C@H]3CN(C(=O)C(C)C)C[C@@]3(CO)C2)cc1F,-9%,1.18
Cc1csc(C(C)CN2C(=O)NC(Cc3cccc4ccccc34)C2=O)n1 (stereo unspecified),4%,-0.58
CC(C)C(=O)N(Cc1ccc(-c2cc(Cl)ccc2Cl)o1)[C@H]1CCS(=O)(=O)C1,-11%,1.48
O=C(OC1CCCC1)c1ccc(NC(=O)N2CCC3(CC2)C[C@H](O)CO3)cc1,-10%,1.59
Cc1ccc(CN2C[C@@H]3CC[C@H]2CN(c2cnccn2)C3)s1,-17%,2.71
CCN(CC)c1nc2cc(C(=O)NCc3ccc(C)cc3)ccc2c(=O)n1Cc1ccccc1,5%,-0.78
O=C(NC1(c2ccccc2)COC1)c1noc2c1COCC2,-14%,1.85
O=C(OC[C@@H](c1ccccc1)N1CCS(=O)(=O)CC1)c1ccc(Cl)c(Cl)c1,-5%,0.72

Compound,% Inhibition,Z score
Cc1cc(C)cc(-n2nc(C(=O)NCC3CC3)c(=O)n(Cc3ccccc3F)c2=O)c1,-4%,0.51
Cc1noc(-c2ccccc2Cl)c1C(=O)NC[C@H]1CCCO1,0%,0.07
Cc1nc(N)nc(NCCC2(O)CCCC2)c1Cl,-10%,1.09
Cn1c(C(=O)NCCCO)cc2occc21,-6%,0.66
COC(=O)[C@@]1(c2ccccc2)N[C@@H](c2cc(C)ccc2O)[C@H]2C(=O)N(C)C(=O)[C@H]21,-3%,0.62
CC1CC(C(=O)NC2CCn3cncc32)CC(C)(C)C1 (stereo unspecified),-13%,1.75
C[C@H]1C(=O)N(c2cccc(F)c2)CCN1C(=O)C1CCCC1,29%,-3.84
CCc1ccccc1NC(=O)Cn1cnc(-c2noc(-c3ccncc3)n2)c1,-14%,1.8
O=C1N[C@H]2C[C@@H](C(=O)NC[C@H]3O[C@H](CCOc4ccccc41)CC[C@@H]3O)N(Cc1ccncc1)C2,24%,-2.72
Cc1nnnn1CCC(=O)NCc1ccc2nonc2c1,-13%,1.17
Cc1cc2oc(C(=O)Nc3nc(-c4ccc(S(=O)(=O)N5CCCC5)cc4)cs3)c(C)c2cc1C,-12%,1.5
CC(C)(C)c1cc(CN2CC[C@@](O)(CN3CCCCC3)C2)n[nH]1,8%,-0.74
CCN1CCN(C2CN(C(=O)COCc3ccc(OC)cc3)C2)CC1,-4%,0.74
O=C(NC[C@H]1COCCO1)c1ccc(CN2CCC(O)(c3cccc(C(F)(F)F)c3)CC2)[nH]c1=O,5%,-0.71
Cc1cc(Br)ccc1OCCOCCNCCN,-5%,0.7
CCCCOc1ccc(-c2cc3c(N4CCN(C)CC4)nccn3n2)cc1,-2%,0.31
c1coc(-c2noc([C@H]3CCCc4[nH]ncc43)n2)c1,1%,-0.12
Cc1c(-c2nc3c([nH]2)CCCNC3=O)oc2ccccc12,1%,-0.16
O=C(c1cccc(C(F)(F)F)c1)N1CCO[C@]2(CNCCOC2)C1,12%,-1.63
CCCc1cnc(C)nc1N1C[C@@H]2NC(=O)CN(CCOC)C(=O)c3cncc(c3)Oc3cccc(c3)CO[C@H]2C1,-14%,1.77
C/C=C(\C)CN1C[C@H](NC(=O)c2ccnn2C)[C@@H](C2CC2)C1,-6%,1.07

Compound,% Inhibition,Z score
NC(=O)N1CCC[C@H](Nc2ccc(C(F)(F)F)cn2)C1,9%,-1.62
COc1ccc(S(=O)(=O)Oc2cc(CN(C(=O)C3CCC3)C(C)C)ccc2OC)cc1,-10%,1.21
CC1CC(N(C)C(=O)C(N)Cc2ccccc2)CCN1Cc1ccccc1 (stereo unspecified),-7%,0.94
O=S(=O)(Cc1cc(F)cc(F)c1)N1CC(C(F)F)C1,1%,-0.17
O=C(N1CCO[C@@H](CF)C1)C1(O)CCC1,-17%,1.98
O=C(NCC[C@]1(O)CCCOC1)c1ncccc1F,14%,-1.58
CC1(C)CCc2sc(CNC(=O)Cn3cn[nH]c3=O)cc2C1,-5%,0.47
CCN(CC)CCCOc1cc(C)cc(C)c1,-12%,2.21
O=C(O)Cn1ccc([C@H]2CCCN(Cc3cccc4cc[nH]c34)C2)n1,-1%,0.18
C=CCNC(=O)N1CCCC[C@H](N2CCN(C)CC2)C1,-8%,1.08
CN(CCNC(=O)N1C2CCC1CC(=O)C2)Cc1ccc(F)cc1,2%,-0.2
Cn1cc(CNC(=O)c2cc(F)c[nH]2)cn1,-3%,0.57
Cc1cc(C(=O)NCCc2cccc(-c3ccccc3)c2)n(C2CCOCC2)n1,4%,-0.57
Cc1cn(-c2c(F)cccc2F)nc1C(=O)NC1CC2CC2C1 (stereo unspecified),-3%,0.63
CCCCOc1ccc(C(=O)N2CCn3cccc3[C@H]2c2cccc(OC)c2)cc1,-1%,0.17
CCC(=O)Nc1ccc(N2CCN(C(=O)c3cccc(F)c3)CC2)c(C(=O)N(C)Cc2ccccc2)c1,-15%,1.61
CC[C@H](C)N(CC(=O)N1CCN(c2ccc(-c3ccc(OC)c(OC)c3)nn2)CC1)C(=O)C1CCC1,2%,-0.23
Cc1ccc(C(=O)N[C@H]2COC[C@@H]2O)c2c1CCC2,3%,-0.49
CN1CCC(N[C@H]2C[C@@H](Cc3cc(COc4ccccc4)on3)C2(C)C)CC1,22%,-2.61
COCC(=O)N[C@@H]1CCN(C(=O)Cc2ccc(Cl)cc2)C[C@@H]1CO,-1%,0.17
CCNc1ncnc2sc(C(=O)N3CCCC3)c(C)c12,-15%,2.08

Compound,% Inhibition,Z score
Cc1ccc(S(=O)(=O)c2c(Nc3ccccc3)nn3c(O)cc(CS(=O)(=O)c4ccccc4)nc23)cc1,-8%,1.4
CCOC(=O)c1cnc(-c2cccc(C(F)(F)F)c2)nc1N1CCCC2CCCCC21 (stereo unspecified),-13%,1.49
CN(Cc1ccc(Cl)c(Cl)c1)C1CC[S+]([O-])CC1 (stereo unspecified),-6%,0.64
CC1CCCC(C(=O)N2CCC3(C2)NC(=O)NC3=O)C1 (stereo unspecified),3%,-0.37
Cc1c(Br)cccc1C[C@H](CO)CNC(=O)CC1CC1,-25%,2.97
CCC(=O)N1CCC(NC(C)c2nc(C)no2)C(CC)C1 (stereo unspecified),5%,-0.85
Cc1nc(C)c(C(=O)N2CCc3cnccc32)o1,4%,-0.53
CC(O)CN1CCN(C(=O)c2ccncc2Cl)C(C)C1 (stereo unspecified),4%,-0.53
CC(=O)c1ccc(N2CCN(C(=O)C3CCOCC3)CC2)cc1,0%,-0.05
COC(C)(C)c1noc(-c2ccc3c(N)ncnc3c2)n1,-10%,2.01
Cc1ccc2c(c1)CCN2CCc1ccc(C)nc1,9%,-1.32
O=C(NC1CCC(F)(F)CC1)c1ccn[nH]1,-30%,3.85
CCCS(=O)(=O)CC(=O)Nc1ncc(C2CCCCC2)s1,-3%,0.28
C=CCCOCCN=C(N)N1CCC[C@H](C)C1,-5%,0.61
CCN(Cc1ccc(OC)cc1)C(=O)CCc1nc(-c2cc3ccccc3nc2O)no1,13%,-2.49
O=C(CCCN1CCN(Cc2ccc(F)cc2)C(=O)C1=O)NCc1ccc2c(c1)OCO2,-2%,0.37
CCc1nnc(-c2cc(NC(=O)c3cnccn3)c(C)s2)o1,-30%,2.93
CC(C)C(=O)NC[C@@]12CCCC=C1N(CC1CC1)C(=O)CC2,-5%,0.7
COc1ccc(N2CCN(c3cc(Nc4ccc(C)cc4)ncn3)CC2)cc1,1%,-0.11
O[C@H]1[C@H](NCc2ccc(Cl)c(Cl)c2)[C@H]2CO[C@H](O2)[C@@H]1n1cc(Cl)cn1,-9%,1.4
